# Laboratory results published in patent US20250002557A1 (SUZHOU LIGHT FERRY BIOMED, published 2025).
# Where “and” joins values, the source holds several entries; their conditions need not be identical. Equal values may be shown once.
# T1: VEGF-A (isoform not given) (UniProt P15692-4 27-191, limits assumed)
# T1 construct: May be the same reagent as VEGF-A165
# T1 sequence (looked up): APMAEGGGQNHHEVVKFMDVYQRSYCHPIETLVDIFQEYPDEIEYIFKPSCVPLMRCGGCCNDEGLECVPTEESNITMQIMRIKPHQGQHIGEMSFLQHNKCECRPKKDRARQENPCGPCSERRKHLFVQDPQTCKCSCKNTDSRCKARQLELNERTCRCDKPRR
# T2: VEGF-C (UniProt P49767 112-227, limits assumed)
# T2 construct: Bought reagent
# T2 sequence (looked up): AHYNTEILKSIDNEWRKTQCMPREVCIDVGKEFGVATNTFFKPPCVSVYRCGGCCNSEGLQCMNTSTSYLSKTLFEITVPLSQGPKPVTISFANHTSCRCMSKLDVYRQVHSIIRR
# T3: VEGF-D (UniProt O43915 89-205, limits assumed)
# T3 construct: Bought reagent
# T3 sequence (looked up): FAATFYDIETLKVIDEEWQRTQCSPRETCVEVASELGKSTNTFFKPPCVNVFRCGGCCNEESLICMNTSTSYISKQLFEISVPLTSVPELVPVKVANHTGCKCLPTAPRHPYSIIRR
# T4: VEGF-A165 (UniProt P15692-4 27-191)
# T4 construct: Bought reagent
# T4 sequence (looked up): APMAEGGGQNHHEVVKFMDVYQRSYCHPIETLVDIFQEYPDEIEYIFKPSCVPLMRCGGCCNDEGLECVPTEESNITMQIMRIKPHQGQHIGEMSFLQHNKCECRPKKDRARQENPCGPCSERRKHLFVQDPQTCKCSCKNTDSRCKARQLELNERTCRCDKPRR
# Tests used:
# [1] = biological target: T1, VEGF-A (isoform not given); test: SPR Biacore T200, trap captured on Protein A chip, antigen in flow
# VEGF-C [2] = biological target: T2, VEGF-C; test: blocking ELISA, VEGF-C-His to coated VEGFR3-Fc; row head prints uM, ng/ml row implies nM
# Method: (§1) During the blocking period, each recombinant receptor molecule was serially diluted from high to low concentrations, mixed evenly with 10 ng/well of VEGF-C or 500 ng/well of VEGF-D (both labeled with His-tag), allowing for incubation at room temperature for 30 minutes. […] The plates were washed with PBST, then TMB was added for color development, terminated with 5% hydrochloric acid solution, and finally, the OD values at 450 nm were read using a microplate reader.
# VEGF-C [3] = biological target: T2, VEGF-C; test: blocking ELISA, VEGF-C-His to coated VEGFR3-Fc
# Method: as §1
# VEGF-D [4] = biological target: T3, VEGF-D; test: blocking ELISA, VEGF-D-His to coated VEGFR3-Fc
# Method: as §1
# VEGF-D [5] = biological target: T3, VEGF-D; test: blocking ELISA, VEGF-D-His to coated VEGFR2-Fc
# Method: as §1, with “100” for “10”, “or” for “or 500 ng/well of”, “then anti-polyhistidine secondary antibody conjugated with horseradish peroxidase was added to allow for incubation and binding at room temperature for 1 hour. Then the plates were washed with PBST,” for “then”
# VEGF-C [6] = biological target: T2, VEGF-C; test: blocking ELISA, VEGF-C-His to coated VEGFR2-Fc
# Method: as §1, with “100” for “10”, “or” for “or 500 ng/well of”, “then anti-polyhistidine secondary antibody conjugated with horseradish peroxidase was added to allow for incubation and binding at room temperature for 1 hour. Then the plates were washed with PBST,” for “then”
# VEGF-C [7] = biological target: T2, VEGF-C; test: ELISA, coated VEGF-C, anti-human Fc-HRP
# VEGF-D [8] = biological target: T3, VEGF-D; test: blocking ELISA, VEGF-D-His to coated VEGFR2-Fc; row head prints uM, ng/ml row implies nM
# Method: as §1, with “100” for “10”, “or” for “or 500 ng/well of”, “then anti-polyhistidine secondary antibody conjugated with horseradish peroxidase was added to allow for incubation and binding at room temperature for 1 hour. Then the plates were washed with PBST,” for “then”
# VEGF-A165 [9] = biological target: T4, VEGF-A165; test: ELISA, coated VEGF-A 165, anti-human Fc-HRP
# VEGF-D [10] = biological target: T3, VEGF-D; test: blocking ELISA: His-VEGF-D premixed with sample, binding to coated VEGFR2-Fc read with anti-His-HRP
# Method: as §1, with “100” for “10”, “or” for “or 500 ng/well of”, “then anti-polyhistidine secondary antibody conjugated with horseradish peroxidase was added to allow for incubation and binding at room temperature for 1 hour. Then the plates were washed with PBST,” for “then”
# VEGF-C [11] = biological target: T2, VEGF-C; test: blocking ELISA: His-VEGF-C premixed with sample, binding to coated VEGFR2-Fc read with anti-His-HRP
# Method: as §1, with “100” for “10”, “or” for “or 500 ng/well of”, “then anti-polyhistidine secondary antibody conjugated with horseradish peroxidase was added to allow for incubation and binding at room temperature for 1 hour. Then the plates were washed with PBST,” for “then”
# VEGF-D [12] = biological target: T3, VEGF-D; test: blocking ELISA: His-VEGF-D premixed with sample, binding to coated VEGFR3-Fc read with anti-His-HRP
# Method: as §1
# VEGF-A165 [13] = biological target: T4, VEGF-A165; test: blocking ELISA: His-VEGF-A165 premixed with sample, binding to coated VEGFR2-Fc read with anti-His-HRP
# VEGF-C [14] = biological target: T2, VEGF-C; test: blocking ELISA: His-VEGF-C premixed with sample, binding to coated VEGFR2-Fc read with anti-His-HRP; remark: listed apart in the source
# Method: as §1, with “100” for “10”, “or” for “or 500 ng/well of”, “then anti-polyhistidine secondary antibody conjugated with horseradish peroxidase was added to allow for incubation and binding at room temperature for 1 hour. Then the plates were washed with PBST,” for “then”
# VEGF-A165 [15] = biological target: T4, VEGF-A165; test: blocking ELISA: His-VEGF-A165 premixed with sample, binding to coated VEGFR2-Fc read with anti-His-HRP; remark: listed apart in the source
# VEGF-D [16] = biological target: T3, VEGF-D; test: blocking ELISA: His-VEGF-D premixed with sample, binding to coated VEGFR2-Fc read with anti-His-HRP; remark: listed apart in the source
# Method: as §1, with “100” for “10”, “or” for “or 500 ng/well of”, “then anti-polyhistidine secondary antibody conjugated with horseradish peroxidase was added to allow for incubation and binding at room temperature for 1 hour. Then the plates were washed with PBST,” for “then”
Kd [1] [nM],koff [1] [s⁻¹],kon [1] [M⁻¹ s⁻¹],EC50 (VEGF-C [2]) [nM],EC50 (VEGF-C [3]) [µg/mL],EC50 (VEGF-D [4]),EC50 (VEGF-D [5]) [µg/mL],EC50 (VEGF-C [6]),EC50 (VEGF-C [7]),EC50 (VEGF-D [8]) [nM],EC50 (VEGF-A165 [9]),EC50 (VEGF-D [10]) [nM],EC50 (VEGF-C [11]) [nM],EC50 (VEGF-D [12]) [nM],EC50 (VEGF-A165 [13]) [nM],EC50 (VEGF-C [14]) [nM],EC50 (VEGF-A165 [15]) [nM],EC50 (VEGF-D [16]) [nM],Binder
0.54,0.00152,2.82e+06,1570,0.189,2.44 µg/mL and 20.3 nM,1.54,3.59 µg/mL and 29.9 nM,3.3 nM and 0.399 µg/mL,12800,,,,,,,,,"LFV-001 Recombinant receptor molecule (Fc fusion, also called LFV-001/V0) YSMTPPTLNITEESHVIDTGDSLSISCRGQHPLEWAWPGAQEAPATGDKDSEDTGVVRDCEGTDARPYCKVLLLHEVHANDTGSYVCYYKYIKARIEGTTAASSYVFVRDFEQPFINKPDTLLVNRKDAMWVPCLVSIPGLNVTLRSQSSVLWPDGQEVVWDDRRGMLVSTPLLHDALYLQCETTWGDQDFLSNPFLVHITGYRIYDVVLSPSHGIELSVGEKLVLNCTARTELNVGIDFNWEYPSSKHQHKKLVNRDLKTQSGSEMKKFLSTLTIDGVTRSDQGLYTCAASSGLMTKKNSTFVRVHEKGPG[here human IgG1 Fc without letters]"
,,,4670,0.561,2.45 µg/mL and 20.4 nM,0.532,7.81 µg/mL and 65.1 nM,0.162 µg/mL and 1.35 nM,4400,,,,,,,,,R3A (Fc fusion) YSMTPPTLNITEESHVIDTGDSLSISCRGQHPLEWAWPGAQEAPATGDKDSEDTGVVRDCEGTDARPYCKVLLLHEVHANDTGSYVCYYKYIKARIEGTTAASSYVFVRDFEQPFINKPDTLLVNRKDAMWVPCLVSIPGLNVTLRSQSSVLWPDGQEVVWDDRRGMLVSTPLLHDALYLQCETTWGDQDFLSNPFLVHITGNELYDIQLLPRKSLELLVGEKLVLNCTVWAEFNSGVTFDWDYPGKQAERGKWVPERRSQQTHTELSSILTIHNVSQHDLGSYVCKANNGIQRFRESTEVIVHE[here human IgG1 Fc without letters]
,,,20700,2.92,3.44 µg/mL and 24.4 nM,0.522,24 µg/mL and 171 nM,6.5 nM and 0.916 µg/mL,3700,0.983 µg/mL and 6.99 nM,,,,,,,,LFV-F Recombinant receptor molecule (Fc fusion) GLPSVSLDLPRLSIQKDILTIKANTTLQITCRGQRDLDWLWPNNQSGSEQRVEVTECSDGLFCKTLTIPKVIGNDTGAYKCFYRETDLASVIYVYVQDYRSPFIASVSDQHGVVYITENKNKTVVIPCLGSISNLNVSLCARYPEKRFVPDGNRISWDSKKGFTIPSYMISYAGMVFCEAKINDESYQSIMYIVVVVGYRIYDVVLSPSHGIELSVGEKLVLNCTARTELNVGIDFNWEYPSSKHQHKKLVNRDLKTQSGSEMKKFLSTLTIDGVTRSDQGLYTCAASSGLMTKKNSTFVRVHEKPFVAFGSGMESLVEATVGERVRIPAKYLGYPPPEIKWYKNGIPLESNHTIKAGHVLTIMEVSERDTGNYTVILTNPISKEKQSHVVSLVVYVPPGPG[here human IgG1 Fc without letters]
,,,,,,,,,,,4.77,26.7,4.08,4.26,,,,"LFV-H (Fc fusion, also called LFV-H Recombinant receptor molecule) Fc fusion chain: SPFIASVSDQHGVVYITENKQKTVVIPCLGSISNLNVSLCARYPEKRFVPDGNRISWDSKKGFTIPSYMISYAGMVFCEAKINDESYQSIMYIVVVVGYRIYDVVLSPSHGIELSVGEKLVLNCTARTELNVGIDFNWEYPSSKHQHKKLVNRDLKTQSGSEMKKFLSTLTIDGVTRSDQGLYTCAASSGLMTKKNSTFVRVHEKGPG[here human IgG1 Fc without letters]"
,,,,,,,,,,,1.78,27,2.22,4.22,,,,"LFV-L (Fc fusion, also called LFV-L Recombinant receptor molecule) Fc fusion chain: SPFIASVSDQHGVVYITENKNKTVVIPCLGSISNLNVSLCARYPEKRFVPDGNRISWDSKKGFTIPSYMISYAGMVFCEAKINDESYQSIMYIVVVVGYRIYDVVLSPSHGIELSVGEKLVLNCTARTELNVGIDFNWEYPSSKHQHKKLVNRDLKTQSGSEMKKFLSTLTIDGVTRSDQGLYTCAASSGLMTKKQSTFVRVHEKGPG[here human IgG1 Fc without letters]"
,,,,,,,,,,,5.16,28.6,3.3,11.9,,,,"LFV-J (Fc fusion, also called LFV-J Recombinant receptor molecule) Fc fusion chain: SPFIASVSDQHGVVYITENKNKTVVIPCLGSISNLQVSLCARYPEKRFVPDGNRISWDSKKGFTIPSYMISYAGMVFCEAKINDESYQSIMYIVVVVGYRIYDVVLSPSHGIELSVGEKLVLNCTARTELNVGIDFNWEYPSSKHQHKKLVNRDLKTQSGSEMKKFLSTLTIDGVTRSDQGLYTCAASSGLMTKKNSTFVRVHEKGPG[here human IgG1 Fc without letters]"
,,,,,,,,,,,1.82,25.9,2.28,3.05,6.54,2.74,1.27,LFV-K Recombinant receptor molecule (Fc fusion) SPFIASVSDQHGVVYITENKNKTVVIPCLGSISNLNVSLCARYPEKRFVPDGNRISWDSKKGFTIPSYMISYAGMVFCEAKINDESYQSIMYIVVVVGYRIYDVVLSPSHGIELSVGEKLVLQCTARTELNVGIDFNWEYPSSKHQHKKLVNRDLKTQSGSEMKKFLSTLTIDGVTRSDQGLYTCAASSGLMTKKNSTFVRVHEKGPG[here human IgG1 Fc without letters]
,,,36000,4.32,10 µg/mL and 83.7 nM,0.92,58.3 µg/mL and 486 nM,1.6 nM and 0.192 µg/mL,7700,0.476 µg/mL and 3.97 nM,,,,,,,,LFV-D Recombinant receptor molecule (Fc fusion) YVQDYRSPFIASVSDQHGVVYITENKNKTVVIPCLGSISNLNVSLCARYPEKRFVPDGNRISWDSKKGFTIPSYMISYAGMVFCEAKINDESYQSIMYIVVVVGYRIYDVVLSPSHGIELSVGEKLVLNCTARTELNVGIDFNWEYPSSKHQHKKLVNRDLKTQSGSEMKKFLSTLTIDGVTRSDQGLYTCAASSGLMTKKNSTFVRVHEKPFVAFGSGMESLVEATVGERVRIPAKYLGYPPPEIKWYKNGIPLESNHTIKAGHVLTIMEVSERDTGNYTVILTNPISKEKQSHVVSLVVYVPPGPG[here human IgG1 Fc without letters]
